# From the supplement of paper PMC12423691
# The other results are listed elsewhere or left out. Binding of human transcription factors and regulators to the viral nucleoprotein by AlphaScreen, crude cell-free proteins, amounts not normalised, one pass. Fold of the Venus control; higher = more signal. No active / inactive call. Single-pass screen; sequences are the whole Swiss-Prot entries looked up by name.
# B1: ARHGEF2, Q92974 (protein)
# chain: MSRIESLTRARIDRSRELASKTREKEKMKEAKDARYTNGHLFTTISVSGMTMCYACNKSITAKEALICPTCNVTIHNRCKDTLANCTKVKQKQQKAALLKNNTALQSVSLRSKTTIRERPSSAIYPSDSFRQSLLGSRRGRSSLSLAKSVSTTNIAGHFNDESPLGLRRILSQSTDSLNMRNRTLSVESLIDEAEVIYSELMSDFEMDEKDFAADSWSLAVDSSFLQQHKKEVMKQQDVIYELIQTELHHVRTLKIMTRLFRTGMLEELHLEPGVVQGLFPCVDELSDIHTRFLSQLLERRRQALCPGSTRNFVIHRLGDLLISQFSGPSAEQMCKTYSEFCSRHSKALKLYKELYARDKRFQQFIRKVTRPAVLKRHGVQECILLVTQRITKYPLLISRILQHSHGIEEERQDLTTALGLVKELLSNVDEGIYQLEKGARLQEIYNRMDPRAQTPVPGKGPFGREELLRRKLIHDGCLLWKTATGRFKDVLVLLMTDVLVFLQEKDQKYIFPTLDKPSVVSLQNLIVRDIANQEKGMFLISAAPPEMYEVHTASRDDRSTWIRVIQQSVRTCPSREDFPLIETEDEAYLRRIKMELQQKDRALVELLREKVGLFAEMTHFQAEEDGGSGMALPTLPRGLFRSESLESPRGERLLQDAIREVEGLKDLLVGPGVELLLTPREPALPLEPDSGGNTSPGVTANGEARTFNGSIELCRADSDSSQRDRNGNQLRSPQEEALQRLVNLYGLLHGLQAAVAQQDTLMEARFPEGPERREKLCRANSRDGEAGRAGAAPVAPEKQATELALLQRQHALLQEELRRCRRLGEERATEAGSLEARLRESEQARALLEREAEEARRQLAALGQTEPLPAEAPWARRPVDPRRRSLPAGDALYLSFNPPQPSRGTDRLDLPVTTRSVHRNFEDRERQELGSPEERLQDSSDPDTGSEEEGSSRLSPPHSPRDFTRMQDIPEETESRDGEAVASES
# B2: POU4F2, Q12837 (protein)
# chain: MMMMSLNSKQAFSMPHGGSLHVEPKYSALHSTSPGSSAPIAPSASSPSSSSNAGGGGGGGGGGGGGGGRSSSSSSSGSSGGGGSEAMRRACLPTPPSNIFGGLDESLLARAEALAAVDIVSQSKSHHHHPPHHSPFKPDATYHTMNTIPCTSAASSSSVPISHPSALAGTHHHHHHHHHHHHQPHQALEGELLEHLSPGLALGAMAGPDGAVVSTPAHAPHMATMNPMHQAALSMAHAHGLPSHMGCMSDVDADPRDLEAFAERFKQRRIKLGVTQADVGSALANLKIPGVGSLSQSTICRFESLTLSHNNMIALKPILQAWLEEAEKSHREKLTKPELFNGAEKKRKRTSIAAPEKRSLEAYFAIQPRPSSEKIAAIAEKLDLKKNVVRVWFCNQRQKQKRMKYSAGI
# B3: TFE3, P19532 (protein)
# chain: MSHAAEPARDGVEASAEGPRAVFVLLEERRPADSAQLLSLNSLLPESGIVADIELENVLDPDSFYELKSQPLPLRSSLPISLQATPATPATLSASSSAGGSRTPAMSSSSSSRVLLRQQLMRAQAQEQERRERREQAAAAPFPSPAPASPAISVVGVSAGGHTLSRPPPAQVPREVLKVQTHLENPTRYHLQQARRQQVKQYLSTTLGPKLASQALTPPPGPASAQPLPAPEAAHTTGPTGSAPNSPMALLTIGSSSEKEIDDVIDEIISLESSYNDEMLSYLPGGTTGLQLPSTLPVSGNLLDVYSSQGVATPAITVSNSCPAELPNIKREISETEAKALLKERQKKDNHNLIERRRRFNINDRIKELGTLIPKSSDPEMRWNKGTILKASVDYIRKLQKEQQRSKDLESRQRSLEQANRSLQLRIQELELQAQIHGLPVPPTPGLLSLATTSASDSLKPEQLDIEEEGRPGAATFHVGGGPAQNAPHQQPPAPPSDALLDLHFPSDHLGDLGDPFHLGLEDILMEEEEGVVGGLSGGALSPLRAASDPLLSSVSPAVSKASSRRSSFSMEEES
# B4: PURB, Q96QR8 (protein)
# chain: MADGDSGSERGGGGGPCGFQPASRGGGEQETQELASKRLDIQNKRFYLDVKQNAKGRFLKIAEVGAGGSKSRLTLSMAVAAEFRDSLGDFIEHYAQLGPSSPEQLAAGAEEGGGPRRALKSEFLVRENRKYYLDLKENQRGRFLRIRQTVNRGGGGFGAGPGPGGLQSGQTIALPAQGLIEFRDALAKLIDDYGGEDDELAGGPGGGAGGPGGGLYGELPEGTSITVDSKRFFFDVGCNKYGVFLRVSEVKPSYRNAITVPFKAWGKFGGAFCRYADEMKEIQERQRDKLYERRGGGSGGGEESEGEEVDED
# B5: ZNF438, Q7Z4V0 (protein)
# chain: MQNSVSVPPKDEGESNIPSGTIQSRKGLQNKSQFRTIAPKIVPKVLTSRMLPCHSPSRSDQVNLGPSINSKLLGMSTQNYALMQVAGQEGTFSLVALPHVASAQPIQKPRMSLPENLKLPIPRYQPPRNSKASRKKPILIFPKSGCSKAPAQTQMCPQMSPSPPHHPELLYKPSPFEEVPSLEQAPASISTAALTNGSDHGDLRPPVTNTHGSLNPPATPASSTPEEPAKQDLTALSGKAHFVSKITSSKPSAVASEKFKEQVDLAKTMTNLSPTILGNAVQLISSVPKGKLPIPPYSRMKTMEVYKIKSDANIAGFSLPGPKADCDKIPSTTEGFNAATKVASRLPVPQVSQQSACESAFCPPTKLDLNHKTKLNSGAAKRKGRKRKVPDEILAFQGKRRKYIINKCRDGKERVKNDPQEFRDQKLGTLKKYRSIMPKPIMVIPTLASLASPTTLQSQMLGGLGQDVLLNNSLTPKYLGCKQDNSSSPKPSSVFRNGFSGIKKPWHRCHVCNHHFQFKQHLRDHMNTHTNRRPYSCRICRKSYVRPGSLSTHMKLHHGENRLKKLMCCEFCAKVFGHIRVYFGHLKEVHRVVISTEPAPSELQPGDIPKNRDMSVRGMEGSLERENKSNLEEDFLLNQADEVKLQIKCGRCQITAQSFAEIKFHLLDVHGEEIEGRLQEGTFPGSKGTQEELVQHASPDWKRHPERGKPEKVHSSSEESHACPRLKRQLHLHQNGVEMLMENEGPQSGTNKPRETCQGPECPGLHTFLLWSHSGFNCLLCAEMLGRKEDLLHHWKHQHNCEDPSKLWAILNTVSNQGVIELSSEAEK
# B6: STAT1, P42224 (protein)
# chain: MSQWYELQQLDSKFLEQVHQLYDDSFPMEIRQYLAQWLEKQDWEHAANDVSFATIRFHDLLSQLDDQYSRFSLENNFLLQHNIRKSKRNLQDNFQEDPIQMSMIIYSCLKEERKILENAQRFNQAQSGNIQSTVMLDKQKELDSKVRNVKDKVMCIEHEIKSLEDLQDEYDFKCKTLQNREHETNGVAKSDQKQEQLLLKKMYLMLDNKRKEVVHKIIELLNVTELTQNALINDELVEWKRRQQSACIGGPPNACLDQLQNWFTIVAESLQQVRQQLKKLEELEQKYTYEHDPITKNKQVLWDRTFSLFQQLIQSSFVVERQPCMPTHPQRPLVLKTGVQFTVKLRLLVKLQELNYNLKVKVLFDKDVNERNTVKGFRKFNILGTHTKVMNMEESTNGSLAAEFRHLQLKEQKNAGTRTNEGPLIVTEELHSLSFETQLCQPGLVIDLETTSLPVVVISNVSQLPSGWASILWYNMLVAEPRNLSFFLTPPCARWAQLSEVLSWQFSSVTKRGLNVDQLNMLGEKLLGPNASPDGLIPWTRFCKENINDKNFPFWLWIESILELIKKHLLPLWNDGCIMGFISKERERALLKDQQPGTFLLRFSESSREGAITFTWVERSQNGGEPDFHAVEPYTKKELSAVTFPDIIRNYKVMAAENIPENPLKYLYPNIDKDHAFGKYYSRPKEAPEPMELDGPKGTGYIKTELISVSEVHPSRLQTTDNLLPMSPEEFDEVSRIVGSVEFDSMMNTV
# B7: ZNF280C, Q8ND82 (protein)
# chain: MDDDKPFQPKNISKMAELFMECEEEELEPWQKKVEETQDEDDDELIFVGEISSSKPAISNILNRGHSSSSSKGIKSEPHSPGIPEIFRTASQRCRDPPSNPVAASPRFHLVSKSSQSSVTVENASKPDFTKNSQVGSDNSSILLFDSTQESLPPSQDIPAIFREGMKNTSYVLKHPSTSKVNSVTPKKPKTSEDVPQINPSTSLPLIGSPPVTSSQVMLSKGTNTSSPYDAGADYLRACPKCNVQFNLLDPLKYHMKHCCPDMITKFLGVIVKSERPCDEDKTDSETGKLIMLVNEFYYGRHEGVTEKEPKTYTTFKCFSCSKVLKNNIRFMNHMKHHLELEKQNNESWENHTTCQHCYRQYPTPFQLQCHIESTHTPHEFSTICKICELSFETEHILLQHMKDTHKPGEMPYVCQVCQFRSSTFSDVEAHFRAAHENTKNLLCPFCLKVSKMATPYMNHYMKHQKKGVHRCPKCRLQFLTSKEKAEHKAQHRTFIKPKELEGLPPGAKVTIRASLGPLQSKLPTAPFGCAPGTSFLQVTPPTSQNTTARNPRKSNASRSKTSKLHATTSTASKVNTSKPRGRIAKSKAKPSYKQKRQRNRKNKMSLALKNIRCRRGIHKCIECHSKIKDFASHFSIYIHCSFCKYNTNCNKAFVNHMMSSHSNHPGKRFCIFKKHSGTLRGITLVCLKCDFLADSSGLDRMAKHLSQRKTHTCQVIIENVSKSTSTSEPTTGCSLK
# B8: NR3C2, P08235 (protein)
# chain: METKGYHSLPEGLDMERRWGQVSQAVERSSLGPTERTDENNYMEIVNVSCVSGAIPNNSTQGSSKEKQELLPCLQQDNNRPGILTSDIKTELESKELSATVAESMGLYMDSVRDADYSYEQQNQQGSMSPAKIYQNVEQLVKFYKGNGHRPSTLSCVNTPLRSFMSDSGSSVNGGVMRAVVKSPIMCHEKSPSVCSPLNMTSSVCSPAGINSVSSTTASFGSFPVHSPITQGTPLTCSPNVENRGSRSHSPAHASNVGSPLSSPLSSMKSSISSPPSHCSVKSPVSSPNNVTLRSSVSSPANINNSRCSVSSPSNTNNRSTLSSPAASTVGSICSPVNNAFSYTASGTSAGSSTLRDVVPSPDTQEKGAQEVPFPKTEEVESAISNGVTGQLNIVQYIKPEPDGAFSSSCLGGNSKINSDSSFSVPIKQESTKHSCSGTSFKGNPTVNPFPFMDGSYFSFMDDKDYYSLSGILGPPVPGFDGNCEGSGFPVGIKQEPDDGSYYPEASIPSSAIVGVNSGGQSFHYRIGAQGTISLSRSARDQSFQHLSSFPPVNTLVESWKSHGDLSSRRSDGYPVLEYIPENVSSSTLRSVSTGSSRPSKICLVCGDEASGCHYGVVTCGSCKVFFKRAVEGQHNYLCAGRNDCIIDKIRRKNCPACRLQKCLQAGMNLGARKSKKLGKLKGIHEEQPQQQQPPPPPPPPQSPEEGTTYIAPAKEPSVNTALVPQLSTISRALTPSPVMVLENIEPEIVYAGYDSSKPDTAENLLSTLNRLAGKQMIQVVKWAKVLPGFKNLPLEDQITLIQYSWMCLSSFALSWRSYKHTNSQFLYFAPDLVFNEEKMHQSAMYELCQGMHQISLQFVRLQLTFEEYTIMKVLLLLSTIPKDGLKSQAAFEEMRTNYIKELRKMVTKCPNNSGQSWQRFYQLTKLLDSMHDLVSDLLEFCFYTFRESHALKVEFPAMLVEIISDQLPKVESGNAKPLYFHRK
# Target: nucleoprotein N of Crimean-Congo hemorrhagic fever virus
# Assay: AlphaScreen luminescence signal relative to Venus negative control (fold); higher = stronger binding to CCHFV N
# Method: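 AlphaScreen binding of cell-free made, FLAG-GST-tagged human transcription factors and regulators (crude translation products) to biotinylated N protein; signal as fold of the FLAG-GST-Venus control. One pass.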
row,Binder,AlphaScreen luminescence signal
1,B1,2.7
2,B2,3.4
3,B3,2.6
4,B4,5.86
5,B5,2.88
6,B6,2
7,B7,5.02
8,B8,2.19
